# Test results: publication PMC4336329 (PLoS ONE, 2015)
# In all, about 310,000 compounds went through this assay and about 2,200 (0.71%) showed an effect of 50% or more. Effects have a minus sign here. This is one part of the list.
# Target: human ether-à-go-go-related gene (hERG) potassium channel (human, UniProt Q12809)
# Assay: primary screen, population patch clamp on CHO cells stably expressing hERG
# Sequence of human ether-à-go-go-related gene (hERG) potassium channel (Q12809 whole entry, looked up): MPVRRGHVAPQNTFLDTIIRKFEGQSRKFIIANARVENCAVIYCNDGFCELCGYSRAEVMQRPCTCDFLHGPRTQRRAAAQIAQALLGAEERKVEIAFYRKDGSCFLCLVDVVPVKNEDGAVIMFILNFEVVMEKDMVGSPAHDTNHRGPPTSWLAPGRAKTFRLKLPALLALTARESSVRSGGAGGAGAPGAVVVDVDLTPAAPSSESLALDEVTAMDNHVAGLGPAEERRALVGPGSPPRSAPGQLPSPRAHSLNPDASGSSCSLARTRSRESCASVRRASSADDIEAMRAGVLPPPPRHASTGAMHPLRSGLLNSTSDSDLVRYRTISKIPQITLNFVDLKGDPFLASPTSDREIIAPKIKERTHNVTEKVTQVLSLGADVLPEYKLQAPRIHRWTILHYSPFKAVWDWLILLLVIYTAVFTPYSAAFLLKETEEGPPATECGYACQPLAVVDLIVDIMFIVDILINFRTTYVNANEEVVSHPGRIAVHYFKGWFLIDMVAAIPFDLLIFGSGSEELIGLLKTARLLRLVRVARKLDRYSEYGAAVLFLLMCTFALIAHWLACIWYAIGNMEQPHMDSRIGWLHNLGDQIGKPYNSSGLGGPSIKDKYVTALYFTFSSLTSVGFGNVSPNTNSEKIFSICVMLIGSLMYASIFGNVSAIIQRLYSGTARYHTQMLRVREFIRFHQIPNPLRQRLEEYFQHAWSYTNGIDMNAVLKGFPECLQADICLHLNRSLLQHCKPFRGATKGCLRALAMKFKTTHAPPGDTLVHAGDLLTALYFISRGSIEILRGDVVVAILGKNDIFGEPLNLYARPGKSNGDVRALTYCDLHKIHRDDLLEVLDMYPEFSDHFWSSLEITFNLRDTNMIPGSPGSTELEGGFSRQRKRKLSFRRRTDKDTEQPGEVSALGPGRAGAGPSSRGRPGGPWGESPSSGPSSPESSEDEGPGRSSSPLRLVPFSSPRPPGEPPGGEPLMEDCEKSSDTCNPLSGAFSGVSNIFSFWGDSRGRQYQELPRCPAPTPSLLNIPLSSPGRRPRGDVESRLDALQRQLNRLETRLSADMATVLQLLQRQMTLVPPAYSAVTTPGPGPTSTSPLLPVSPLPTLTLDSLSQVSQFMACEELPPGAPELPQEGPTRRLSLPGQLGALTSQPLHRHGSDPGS
row,SMILES,"hERG current change (%, negative = inhibition) at 1uM"
1,CCNc1cc(S(=O)(=O)C(F)(F)F)ccc1N,9.29%
2,CSc1nsc(SCC(=O)Nc2ccccn2)n1,6.06%
3,CCc1c(-c2ccccc2)[n+](=O)c2c(n1[O-])CCC2,15.4%
4,CCCc1nc(NCc2ccncc2)c2nnn(Cc3ccccc3F)c2n1,12.2%
5,CCOC(=O)c1ccc2c(c1)NCc1cccc(OC)c1O2,9.49%
6,CC(=O)c1ccc(OCCOc2ccc(Cl)c3cccnc23)cc1,12.4%
7,CC(=O)n1ccnc1,13.9%
8,O=C(CCN1C(=O)COc2ccccc21)N1CCN(c2ccccn2)CC1,-10.1%
9,CCn1c(C)nc([N+](=O)[O-])c1Sc1ccc(F)cc1,15.9%
10,CC1(C)Cc2nc(N)c(=O)sc2C1,17.1%
11,CCOC(=O)C1C(c2cc(OC)c(OC)c(OC)c2)NC(=S)NC1(O)C(F)(F)F (centres unmarked),8.12%
12,CC1CCN(C(=S)c2cn(Cc3ccccc3F)c3ccccc23)CC1,15.8%
13,CC(=O)c1cc(-c2ccccc2)n(CC(=O)Nc2ccc(C)c(C)c2)c1C,18%
14,CC(=O)c1cnc(-c2cccc(Cl)c2)s1,9.4%
15,CCOC(=O)C1=C(N)Oc2c(oc(CO)cc2=O)C1c1ccc(F)cc1 (centres unmarked),4.19%
16,CC(C)C(c1nnnn1Cc1ccccc1)N1CCN(Cc2ccco2)CC1.Cl (centres unmarked),-3.3%
17,CCOc1ccc(NC(=O)CSc2nc(C)cc(C)n2)cc1,11.5%
18,Cc1c(/N=C/c2ccco2)n(Cc2ccccc2)c2ccccc12,7.22%
19,CCC(C)N1CC(=O)N2Cc3[nH]c4ccccc4c3C[C@H]2C1=O (some centres unmarked),17%

row,SMILES,"hERG current change (%, negative = inhibition) at 1uM"
1,Cc1cc(C)c(-c2csc(NC(=O)C3=NN(c4ccccc4)C(=O)CC3)n2)c(C)c1,2.34%
2,CC(C)(C)NC(=O)c1cccc2c1-c1ccccc1C2=O,12.2%
3,CCOC(=O)CSc1nnc2n1C(C)(C)Cc1ccccc1-2,4.58%
4,Cc1ccc2nc3c(cc(C(=O)NCc4ccco4)c(=N)n3C3CCCC3)c(=O)n2c1,-83.2%
5,O=C(NCCN1CCOCC1)c1ccc2c(c1)N(Cc1ccc(Cl)cc1)C(=O)CS2,2.58%
6,CC(C)Cc1nc2sc3c(NCc4ccco4)ncnc3c2c2c1COC(C)(C)C2,-4.3%
7,CN1C(=O)[C@@H]2C[C@@]3([C@@]45C[C@H]6C(=O)N(C)[C@@H](Cc7ccccc7)C(=O)N6[C@@H]4Nc4ccccc45)c4ccccc4N[C@H]3N2C(=O)[C@@H]1Cc1ccccc1,5.93%
8,CN1C(=O)c2ccc(S(=O)(=O)c3ccc(C(=O)O)cc3)cc2C1=O,6.2%
9,CC1CCCCN1S(=O)(=O)c1ccc(C(=O)Nc2ccccc2-c2nc3ccccc3[nH]2)cc1 (centres unmarked),16.6%
10,CC(NC(=O)CSc1nc2sc3c(c2c(=O)n1-c1ccccc1)CCCC3)c1ccccc1 (centres unmarked),11.7%
11,CN(C)c1ccc(/C=C/C=N/Nc2nc(N3CCOCC3)nc(N3CCOCC3)n2)cc1,11.9%
12,O=C(Nc1ccccc1)C1=C[C@H](C2CCCCC2)C[C@H](OCCCCO)O1,9.32%
13,CCOC(=O)N1CCC(=NNc2ncc(C(F)(F)F)cc2Cl)CC1,6.98%
14,c1ccc(NCc2cccnc2)cc1,12.2%
15,CC1(C)Cc2c(sc3c2c(=O)n(-c2ccc(Cl)cc2)c(=O)n3CC(N)=O)CO1,10.8%
16,CCOc1ccc(NC(=O)C(=O)N/N=C/c2cccnc2)cc1,7%
17,Cn1cc(C(=O)N/N=C/C(Br)=C/c2ccccc2)ccc1=O,1.68%
18,COCC(C)NCc1cccc2ccccc12.O=C(O)C(=O)O (centres unmarked),11.3%
19,CC1CN(C(=O)Cn2c(C(F)(F)F)nc3ccccc32)CC(C)O1 (centres unmarked),16.1%

row,SMILES,"hERG current change (%, negative = inhibition) at 1uM"
1,Cc1nn(-c2ccccc2)c(C)c1C(=O)OC(C)C(=O)NC1CCCCC1C (centres unmarked),2.39%
2,Cc1cc(SCc2ccc([N+](=O)[O-])cc2)nc(=O)[nH]1,7.95%
3,COc1cccc(OCCNC(=O)c2cccc(OC)c2)c1,4.68%
4,CCOc1ccccc1OCCCC(=O)N1CCN(S(=O)(=O)c2ccc(C)cc2)CC1,2.61%
5,CCN1C(=O)[C@H]2[C@@H](c3ccc(OC)cc3)N3C(=O)CN(Cc4ccccc4)C(=O)[C@@]3(Cc3ccccc3)[C@H]2C1=O,9.26%
6,CC(=O)c1ccc(N2C(=O)C3C4C=CC(CC4)C3C2=O)cc1 (centres unmarked),11.2%
7,COc1cc(/C=N/NC(=O)c2ccc(O)cc2)ccc1OCC(=O)N1CC(C)OC(C)C1 (centres unmarked),13%
8,O=C(Nc1cccc(NC(=O)c2ccco2)n1)c1ccco1,-5.95%
9,CN(C)c1ccc(S(=O)(=O)NCC(=O)NCCOc2ccccc2F)cc1[N+](=O)[O-],13.8%
10,Cc1ccc(CNC(=O)c2ccc(S(=O)(=O)N(C)C)cc2)n1C,18.4%
11,O=C(NCCc1ccccc1)c1cccc(N2C(=O)C3CC=CCC3C2=O)c1 (centres unmarked),3.51%
12,CCC(c1nnc(SCC(=O)NCCc2ccc(OC)c(OC)c2)n1Cc1ccccc1)N(C)C (centres unmarked),18.1%
13,CCOC(=O)N1CCN(C(=O)C(C)N(c2ccc(Oc3ccccc3)cc2)S(C)(=O)=O)CC1 (centres unmarked),-11.3%
14,CCCNC(=O)c1c(C)cc(=O)oc1C,-4.47%
15,CC(C)(C)CC(=O)Nc1cc2c3c(c1)CCC(=O)N3CCC2,10.2%
16,C=CCN1C(=O)C(O)=C(C(C)=O)C1c1ccccc1F (centres unmarked),6.75%
17,CCOC(=O)c1[nH]c2ccc(OC)cc2c1NC(=O)CCN1CCCC(C)C1 (centres unmarked),-3.69%
18,CCOC(=O)C1=C(C)NC(=S)NC1c1ccc(OCC(=O)N2CCCCCC2)cc1 (centres unmarked),4.07%
